“And” between values parts separate entries of the source, which are not always exact repeats. Identical values can stand only once. In all, about 150,000 compounds went through this assay and about 540 (0.36%) showed an effect of 50% or more. Some of the results follow.
Test system: Plasmodium falciparum
Assay: Primary screen in NF54 nanoGlo assay, in single point, at 2uM, 72h; a lower Z score goes with more inhibition
Format: functional, Erythrocyte
Details: timepoint 72 hour

SMILES	% Inhibition	Z score	% Inhibition (2 µM)
CCn1nc(C)nc1NC(=O)CCc1ccncc1	19%	-2.47	
CC1CC(C)CN(C(=O)c2ccc3c(c2)ncn3C2CCCC2)C1 (stereo not given)	-17%	2.76	
Cc1ccc(NS(=O)(=O)c2ccc(NC(=O)CN(c3ccc(F)cc3)S(C)(=O)=O)cc2)cc1C	4%	-0.67	
O=C(CCc1cc2n(n1)CCN(C(=O)[C@@H]1Cc3ccccc3O1)C2)NC1CC1	-9%	1.15	
C[C@H](NC(=O)C(C)(C)C)c1ccccc1	0%	0	
COC1(c2ccccc2)CCN(c2ccc3cc[nH]c3n2)CC1	-5%	1.08	
COc1nc(NCC2(N(C)C)CCCC2)ncc1F	-5%	1.05	
Cc1cnc(CCNC(=O)NCC(C)C)n1C(C)C	-8%	1.42	
CN(C[C@H]1CCCO1)C(=O)c1csnn1	13%	-1.53	
COc1ccc(Cc2nc(-c3ccc4nncn4c3)no2)c(Cl)c1	-9%	1.53	
CC(=O)c1ccc(NC(=O)N2CCC(n3cc(-c4cccnc4)nn3)CC2)cc1	15%	-2.05	
O=C(Nc1cccc(Br)c1)c1cc2n(n1)CCCO2	-24%	3.8	
CCN(C(C)=O)c1nc(CN2C(=O)N[C@](C)(c3ccc(F)cc3Br)C2=O)cs1	35%	-0.8	
Cc1ccc(NC(=O)NC2CC3OCCCC23)cc1OCC(F)F (stereo not given)	6%	-0.62	
Cc1c(NC2CCN(CCN3CCOCC3)CC2)cccc1N(C)C	-19%	2.17	
CNC(=O)[C@@H]1CCCN1C(=O)c1cccs1	-2%	0.29	
O=C(CCN1CCCC1)Nc1ccc2c(c1)OCO2			-1% and -10%
O=C(NCc1ccnc(OC2CCC2)c1)[C@H](O)c1ccccc1	1%	-0.13	
Cc1cccc(C(N)=O)c1NCc1cc(C(F)(F)F)nn1C	-6%	0.94	
Cc1ccccc1CCC(=O)NC1(c2ncccn2)CCOCC1	-1%	0.16	
CO[C@@H]1C[C@@H](CO)N(C(=O)c2[nH]ccc2C)C1	0%	0.06	
CN1CCN(C(=N)NC(=O)c2ccccc2)CC1	-6%	0.86	

SMILES	% Inhibition	Z score	% Inhibition (2 µM)
Cc1nn(C)c(C)c1CCC(=O)NCCN1Cc2ccccc2O[C@H](c2ccsc2)C1	10%	-1.26	
O=C(NC1C2CCc3ccccc3C21)N1CCC(C(F)(F)F)C(CO)C1 (stereo not given)	8%	-1.65	
Cc1ccc(-c2nc(N3C(=O)C4CCCCC4C3=O)sc2C)cc1 (stereo not given)	9%	-1.43	
OCc1cc2n(n1)CCN(c1nc3ccccc3o1)C2	3%	-0.34	
Cc1cccc(-c2noc(Cn3nnc4ccccc4c3=O)n2)c1	-6%	0.77	
CN(C1CCCCC1O)S(C)(=O)=O (stereo not given)	-10%	1.18	
CCN1CCN(C(=O)[C@@]2(CCO)CCN(c3ncccn3)C2)CC1	-8%	1.47	
CC(C)c1cc(C(=O)Nc2n[nH]c([C@@H]3CCCO3)n2)n(-c2ccccc2)n1	-17%	2.63	
Cc1noc(CNc2cc(C(=O)N3CCCCC3)ccc2Cl)n1	-3%	0.44	
O=C(c1nc2ccccc2s1)N1CCC(c2cccs2)CC1	-15%	2.19	
Cn1c2ccccc2n2cc(-c3ccc4c(c3)OCO4)nc12	-17%	1.52	
CC(C)C[C@H]1CCCN(CC(=O)N2CC(=O)Nc3ccccc32)C1	-1%	0.19	
Cc1ccc2c(c1)C(=O)N(CCC(=O)NCCOc1ccccc1)C2=O	-1%	0.15	
CCN(Cc1cnn(CC)c1)Cc1cccc2cnccc12	-14%	1.88	
CC(c1ccccc1)N1C(=O)C(CCC(=O)NCc2ccccc2)N=C1O (stereo not given)	-11%	2.01	
Cc1sc2ncnc(N[C@@H](C)c3cscn3)c2c1C	-5%	0.83	
COc1cc(OC)cc([C@@H](CC(=O)N2CCN(c3ccccc3C)CC2)c2cn(Cc3ccccc3)c3ccccc23)c1	-5%	0.74	
O=c1cc(C2CC2)ncn1CC1CCN(Cc2cc(F)ccc2F)CC1	19%	-3.07	
Cc1noc(C)c1C(C)(C)C(=O)N[C@@H](C)C(=O)N1CCS(=O)(=O)CC1	3%	-0.54	
CCOC(=O)[C@@H]1CCCN(C(=O)c2nnc(-c3ccc(F)cn3)o2)C1	1%	-0.11	
N#Cc1ccc(N2CCC[C@H](S(=O)(=O)Nc3ccccc3)C2)nn1	-16%	1.48	
